{
  "source": "the GPR68 mutational scans of Howard et al. (2025)",
  "parents": {"B1": {"name": "GPR68, Q15743 (parent)", "chain": "MGNITADNSSMSCTIDHTIHQTLAPVVYVTVLVVGFPANCLSLYFGYLQIKARNELGVYLCNLTVADLFYICSLPFWLQYVLQHDNWSHGDLSCQVCGILLYENIYISVGFLCCISVDRYLAVAHPFRFHQFRTLKAAVGVSVVIWAKELLTSIYFLMHEEVIEDENQHRVCFEHYPIQAWQRAINYYRFLVGFLFPICLLLASYQGILRAVRRSHGTQKSRKDQIQRLVLSTVVIFLACFLPYHVLLLVRSVWEASCDFAKGVFNAYHFSLLLTSFNCVADPVLYCFVSETTHRDLARLRGACLAFLTCSRTGRAREAYPLGAPEASGKSGAQGEEPELLTKLHPAFQTPNSPGSGGFPTGRLA"}},
  "key": {"[1]": {"variants_of": "B1", "experiment": "cAMP reporter score (Enrich2 score, wild type = 0); higher = more signal; HEK293T, FACS bins"}, "[2]": {"variants_of": "B1", "experiment": "surface expression score (Enrich2 score, wild type = 0); higher = more signal; HEK293T, FACS bins"}},
  "note": "Scores with a large standard error are left out. Two further conditions of the source, in which the scores hardly spread, are not listed. In variant names, del marks residues removed and ins residues inserted between the two positions. For some of these results: The concentration of ogerin is not given here.",
  "data": [
    {"variant": "N104_I105del", "values": [
      {"measurement": "cAMP reporter score", "setting": "[1]; pH 5.5", "value": -2.06},
      {"measurement": "cAMP reporter score", "setting": "[1]; pH 6", "value": -0.656},
      {"measurement": "cAMP reporter score", "setting": "[1]; pH 6, modulator: ogerin", "value": -1.44},
      {"measurement": "cAMP reporter score", "setting": "[1]; pH 6.5, modulator: ogerin", "value": -1.72},
      {"measurement": "surface expression score", "setting": "[2]", "value": -2.39}
    ]},
    {"variant": "I105_Y106insGS", "values": [
      {"measurement": "cAMP reporter score", "setting": "[1]; pH 5.5", "value": -2.58},
      {"measurement": "cAMP reporter score", "setting": "[1]; pH 6", "value": -1.39},
      {"measurement": "cAMP reporter score", "setting": "[1]; pH 6, modulator: ogerin", "value": -3.68},
      {"measurement": "surface expression score", "setting": "[2]", "value": -2.41}
    ]},
    {"variant": "MGNITADNSSMSCTIDHTIHQTLAPVVYVTVLVVGFPANCLSLYFGYLQIKARNELGVYLCNLTVADLFYICSLPFWLQYVLQHDNWSHGDLSCQVCGILLYENIAISVGFLCCISVDRYLAVAHPFRFHQFRTLKAAVGVSVVIWAKELLTSIYFLMHEEVIEDENQHRVCFEHYPIQAWQRAINYYRFLVGFLFPICLLLASYQGILRAVRRSHGTQKSRKDQIQRLVLSTVVIFLACFLPYHVLLLVRSVWEASCDFAKGVFNAYHFSLLLTSFNCVADPVLYCFVSETTHRDLARLRGACLAFLTCSRTGRAREAYPLGAPEASGKSGAQGEEPELLTKLHPAFQTPNSPGSGGFPTGRLA", "note": "[Y106A]", "values": [
      {"measurement": "cAMP reporter score", "setting": "[1]; pH 5.5", "value": -1.15},
      {"measurement": "cAMP reporter score", "setting": "[1]; pH 6", "value": -0.514},
      {"measurement": "cAMP reporter score", "setting": "[1]; pH 6, modulator: ogerin", "value": -1.6},
      {"measurement": "cAMP reporter score", "setting": "[1]; pH 6.5, modulator: ogerin", "value": -1.19},
      {"measurement": "surface expression score", "setting": "[2]", "value": -1.06}
    ]},
    {"variant": "MGNITADNSSMSCTIDHTIHQTLAPVVYVTVLVVGFPANCLSLYFGYLQIKARNELGVYLCNLTVADLFYICSLPFWLQYVLQHDNWSHGDLSCQVCGILLYENICISVGFLCCISVDRYLAVAHPFRFHQFRTLKAAVGVSVVIWAKELLTSIYFLMHEEVIEDENQHRVCFEHYPIQAWQRAINYYRFLVGFLFPICLLLASYQGILRAVRRSHGTQKSRKDQIQRLVLSTVVIFLACFLPYHVLLLVRSVWEASCDFAKGVFNAYHFSLLLTSFNCVADPVLYCFVSETTHRDLARLRGACLAFLTCSRTGRAREAYPLGAPEASGKSGAQGEEPELLTKLHPAFQTPNSPGSGGFPTGRLA", "note": "[Y106C]", "values": [
      {"measurement": "cAMP reporter score", "setting": "[1]; pH 5.5", "value": -0.558},
      {"measurement": "cAMP reporter score", "setting": "[1]; pH 6", "value": -0.519},
      {"measurement": "cAMP reporter score", "setting": "[1]; pH 6, modulator: ogerin", "value": -0.814},
      {"measurement": "cAMP reporter score", "setting": "[1]; pH 6.5, modulator: ogerin", "value": -0.553},
      {"measurement": "surface expression score", "setting": "[2]", "value": -0.665}
    ]}
  ]
}
